# Source: a collection of fitness landscapes (doi:10.1016/j.celrep.2020.107928)
# The full ranking holds about 81,000 sequences; the median of “one-hybrid fitness for binding NBS DNA” is about -0.1, and the highest 2% start at about 0.36. Some of the results follow.
# B1: Caulobacter ParB omega fusion; a variant is named by its letters at X, in order, B8GW30 (parent)
# chain: MESVVVGEPGMSEGRRGLGRGLSALLGEVDAAPAQAPGEQLGGSREAPIEILQRNPDQPRRTFREEDLEDLSNSIREKGVLQPILVRPSPDTAGEYQIVAGERAWRAAQRAGLKTVPIMVRELDDLAVLEIGIIENVQRADLNVLEEALSYKVLMEKFERTQENIAQTIGKSXSHVANXMRLLXLPDEVQSYLVSGELTAXHARAIAAAADPVALAKQIIEGGLSVRETEALARKAPNLSAGKSKGGRPPRVKDTDTQALESDLSSVLGLDVSIDHRGSTGTLTITYATLEQLDDLCNRLTRGI
# Variants of: B1
# Test: one-hybrid fitness for binding NBS DNA (the Noc-binding site; scaled: cognate 1, non-cognate 0); higher = stronger binding
# Conditions: with NBS DNA site
# Summary of the method: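 Fitness here means the log change in variant-to-wild-type read ratio between plasmids sequenced before and after selection. That scale was set so cognate equals 1 and non-cognate equals 0. The selection was a bacterial one-hybrid screen of Caulobacter ParB libraries, four specificity codons randomised, in E. coli USO carrying a HIS3 reporter with the site 19 bp from the promoter, grown 48 hours at 37°C on M9-minus-histidine with 0.1 mM IPTG and 5 mM 3-AT.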
row,Variant,one-hybrid fitness for binding NBS DNA
1,VGRC,≤ 0.2
2,LRVL,≤ 0.2
3,KCAW,≤ 0.2
4,WQCR,≤ 0.2
5,RFCC,≤ 0.2
6,LGIE,≤ 0.2
7,RGPN,≤ 0.2
8,NGST,≤ 0.2
9,KVNS,≤ 0.2
10,KFPL,≤ 0.2
11,PWSF,≤ 0.2
12,FTNG,≤ 0.2
13,SKMI,≤ 0.2
14,PVRW,≤ 0.2
15,YLGP,≤ 0.2
16,LMVT,≤ 0.2
17,TDSC,≤ 0.2
18,CWSR,≤ 0.2
19,RFAH,≤ 0.2
20,RCMM,≤ 0.2
21,QVFS,≤ 0.2
22,ACCY,≤ 0.2
23,RKYV,≤ 0.2
24,SRCS,≤ 0.2
25,TCNE,≤ 0.2
26,KHHG,≤ 0.2

row,Variant,one-hybrid fitness for binding NBS DNA
1,RWAS,≤ 0.2
2,KTVR,≤ 0.2
3,LFPK,≤ 0.2
4,RLWM,≤ 0.2
5,GVNS,≤ 0.2
6,HDTK,≤ 0.2
7,TRVD,≤ 0.2
8,CKVG,≤ 0.2
9,KAIL,≤ 0.2
10,VLAL,≤ 0.2
11,WTWG,≤ 0.2
12,EVGG,≤ 0.2
13,SLMN,≤ 0.2
14,FNLS,≤ 0.2
15,TLMN,≤ 0.2
16,KVVC,≤ 0.2
17,MWKS,≤ 0.2
18,WTSV,≤ 0.2
19,DNHC,≤ 0.2
20,HVPG,≤ 0.2
21,WWRG,≤ 0.2
22,RRLT,0.761
23,CAYR,≤ 0.2
24,PMVV,≤ 0.2
25,CLGC,≤ 0.2
26,DELW,≤ 0.2

row,Variant,one-hybrid fitness for binding NBS DNA
1,LRRE,≤ 0.2
2,NPYA,≤ 0.2
3,YSIV,≤ 0.2
4,EQRE,≤ 0.2
5,IENI,≤ 0.2
6,SWTH,≤ 0.2
7,FHAL,≤ 0.2
8,SKET,≤ 0.2
9,VWNR,≤ 0.2
10,HKSF,≤ 0.2
11,RILY,≤ 0.2
12,AFTS,≤ 0.2
13,VHPS,≤ 0.2
14,EGSC,≤ 0.2
15,QVNK,≤ 0.2
16,HGHE,≤ 0.2
17,WYLS,≤ 0.2
18,NLYG,≤ 0.2
19,CETD,≤ 0.2
20,ENNV,≤ 0.2
21,PNSC,≤ 0.2
22,TVES,≤ 0.2
23,DDMT,≤ 0.2
24,NCSR,≤ 0.2
25,TILE,≤ 0.2
26,QSQN,≤ 0.2

row,Variant,one-hybrid fitness for binding NBS DNA
1,NSRY,≤ 0.2
2,STFI,≤ 0.2
3,ECLL,≤ 0.2
4,CQTN,≤ 0.2
5,KCIG,≤ 0.2
6,RAIE,≤ 0.2
7,ARNY,≤ 0.2
8,PYTH,≤ 0.2
9,CLPE,≤ 0.2
10,MEYD,≤ 0.2
11,SLIE,≤ 0.2
12,SRWR,≤ 0.2
13,FTGC,≤ 0.2
14,ISST,≤ 0.2
15,CRPS,≤ 0.2
16,PGTN,≤ 0.2
17,VEHR,≤ 0.2
18,YSMI,≤ 0.2
19,VYDV,≤ 0.2
20,SSEC,≤ 0.2
21,FGTR,≤ 0.2
22,TYAQ,≤ 0.2
23,NSRD,≤ 0.2
24,WVNT,≤ 0.2
25,AWDD,≤ 0.2
26,SPEV,≤ 0.2

row,Variant,one-hybrid fitness for binding NBS DNA
1,QVRH,0.332
2,YLLR,≤ 0.2
3,CCGG,≤ 0.2
4,VKAT,≤ 0.2
5,ISDS,≤ 0.2
6,RAEV,≤ 0.2
7,QKEG,≤ 0.2
8,PLYG,≤ 0.2
9,CPPV,≤ 0.2
10,SYIC,≤ 0.2
11,LNGV,≤ 0.2
12,AEQC,≤ 0.2
13,LRIT,≤ 0.2
14,DSHG,≤ 0.2
15,TVPD,≤ 0.2
16,RHHN,≤ 0.2
17,PCPA,≤ 0.2
18,QNRY,≤ 0.2
19,EITR,≤ 0.2
20,KRFG,≤ 0.2
21,AKLS,≤ 0.2
22,TKQA,≤ 0.2
23,GWYA,≤ 0.2
24,MMST,≤ 0.2
25,KRNY,0.238
26,RFMQ,≤ 0.2

row,Variant,one-hybrid fitness for binding NBS DNA
1,TFNL,≤ 0.2
2,GEVT,≤ 0.2
3,PYWS,≤ 0.2
4,MATT,≤ 0.2
5,LAPG,≤ 0.2
6,FGLR,≤ 0.2
7,RYIT,≤ 0.2
8,VEVA,≤ 0.2
9,NIRS,≤ 0.2
10,VEPG,≤ 0.2
11,YLRM,≤ 0.2
12,CKVR,≤ 0.2
13,NRPF,≤ 0.2
14,LRTY,≤ 0.2
15,SRQI,≤ 0.2
16,PRIS,≤ 0.2
17,WLQS,≤ 0.2
18,NRPT,≤ 0.2
19,SCRL,≤ 0.2
20,GHHM,≤ 0.2
21,PHCV,≤ 0.2
22,KNDR,≤ 0.2
23,VNHS,≤ 0.2
